Among the data in PubChem BioAssay AID463173 (ICCB-Longwood Screening Facility, Harvard Medical School, 2010) are survival values, retold here.

The campaign covered roughly 52,000 compounds. About 4,300 (8.3%) were called active. No stated cut-off is given here; in the data, active means survival mostly below about 52% (no sharp cut-off); inactive means mostly above about 56%. The list shows a part of the results.

The assay relates to DeltatarO mutant. Kind of assay: growth inhibition of S. aureus wild type versus tarO mutant, primary screen, teichoic acid synthesis inhibitors, RN4220, OD600 (AID 463173). The settings on record: OD600, 18 h, stronger effect = lower value, screened at 18.75 µg/mL (by protocol).
Consider `CCN(Cc1ccccc1)C(=O)CCS(=O)(=O)c1ccc2c(c1)oc(=O)n2C`, for which the survival is inactive: 122%.

`CCOC(=O)N1CCc2c(sc(NCc3sccc3C)c2C(=O)Nc2ccccc2OCC)C1`: the survival was inactive: 94%.

`CCOC(=O)c1ccc(NC(=O)CN2C(=O)CC(c3ccc(C)c(C)c3)=Nc3ccccc32)cc1`: the survival is inactive: 71%.

With `Cc1c(Cl)cccc1NC(=O)NCCOCCn1c(=O)oc2ccccc21`, the survival is inactive: 51%.

Consider `CCOc1ccc(CCNC(=O)c2ccc3c(c2)N(Cc2cccc(Cl)c2)C(=O)c2ccccc2S3(=O)=O)cc1OCC`, for which the survival is inactive: 144%.

With `Cc1cc(C)nc(SCC(N)=O)n1`, the survival was inactive: 93%.

In the case of `Cc1cc(NC(=O)CN2C(=O)CSc3ccc(S(=O)(=O)N(C)C)cc32)ccc1Br`, the survival was inactive: 93%.

With `CSc1ccc(CCNC(=O)c2ccc3c(c2)nc2n3CCOC2)cc1`, the survival was inactive: 79%.

`CCOC(=O)c1c(NC(=O)c2nc(SC)ncc2Cl)sc(C)c1C`: the survival is inactive: 85%.

As for `COc1cccc(-c2ccnc3[nH]n(-c4ccccc4)c(=O)c23)c1`, the survival was inactive: 71%.

On to `Cc1ccc(-n2c(SCC(=O)N3CCC(C)CC3)nc3c([nH]c4ccccc43)c2=O)cc1`, for which the survival was active: -5%.

Take `CC(C)c1nnc(NC(=O)c2nc(S(=O)(=O)Cc3ccccc3)ncc2Cl)s1`: the survival was inactive: 46%.

As for `Cc1ccc(NC(=O)c2ccc(F)c(S(=O)(=O)N3CCc4ccccc4C3)c2)cc1F`, the survival is inactive: 88%.

Consider `COc1ccccc1CNC(=O)c1cc2c(=O)n(Cc3cccs3)ccc2nc1C`, for which the survival is inactive: 83%.

Turning to `COc1ccc(Cl)cc1NC(=O)CSc1cn(CC(=O)N2CCCC2)c2ccccc12`, the survival was inactive: 83%.

As to `COc1cc(-c2noc(-c3cc(C)[nH]n3)n2)cc(OC)c1OC`, the survival is inactive: 86%.

In the case of `COc1cccc(NC(=O)C2CCN(S(=O)(=O)c3cc(-c4noc(C)n4)ccc3C)CC2)c1`, the survival was inactive: 122%.

As for `O=C(N=Nc1c(O)n(CN2CCCC2)c2ccccc12)c1ccccc1`, the survival is inactive: 103%.

In the case of `CCN1CCN(C(=O)c2cnn(-c3cccc(C)c3)c2C2CCN(C(=O)OC(C)(C)C)CC2)CC1`, the survival is inactive: 89%.

Take `COc1cccc(CNC(=O)c2cccn2-c2nnc(N3CCCC3)s2)c1`: the survival is inactive: 83%.

In the case of `CCn1cc(C(=O)N2CCN(c3ccccc3)CC2)c(=O)c2cc(S(=O)(=O)N3CCC(C)CC3)ccc21`, the survival was inactive: 81%.

`CCOc1ccc(NC(=O)c2cn3c4c(ccc(Cl)c4c2=O)OC(C)C3)cc1` (stereo not given): the survival is inactive: 84%.

As to `Cc1ccc(-c2noc(C3CC(=O)N(c4ccc5c(c4)OCCO5)C3)n2)cc1` (stereo not given), the survival was active: 46%.

Regarding `Nc1nc2ccc(CCC(=O)O)cc2s1`, the survival was inactive: 100%.

On to `COc1ccc(NC(=O)N(Cc2ccco2)C2CCN(C(C)=O)CC2)c(OC)c1`, for which the survival is inactive: 88%.

For the molecule `COc1ccc(CNC(=O)C2CCN(S(=O)(=O)c3cn(C)cn3)CC2)cc1`, the survival is inactive: 105%.

Consider `Cc1cc(-c2nc3ccccc3s2)ccc1NC(=O)c1cc(Cl)ccc1Cl`, for which the survival is inactive: 59%.

As for `N#CC1=C(N)C(C#N)(C#N)C(c2cccs2)C2CN(C(=O)OCc3ccccc3)CC=C12` (stereo not given), the survival was inactive: 69%.

Take `COc1ccc2c(C)c(CCC(=O)NCc3ccc(OC)c(OC)c3)c(=O)oc2c1`: the survival is inactive: 103%.

`Cc1sc(NC(=O)COc2ccc(C(C)(C)C)cc2)c(C(=O)OC(C)C)c1C`: the survival was active: 10%.

Consider `CCOc1cc(C2c3c(oc4ccccc4c3=O)C(=O)N2Cc2ccccc2Cl)ccc1O` (stereo not given), for which the survival is inactive: 85%.

For `CCc1ccc(N2C(=O)CS(=O)(=O)C23C(=O)N(Cc2ccccc2F)c2ccccc23)cc1` (stereo not given), the survival is inactive: 93%.

Consider `COc1ccc2[nH]c(=O)c(C(c3nnnn3Cc3ccccc3)N3CCCC3)cc2c1` (stereo not given), for which the survival was inactive: 89%.

As for `O=C(NCCCN1CCN(c2cccc(Cl)c2)CC1)c1nnc(Cc2ccc(F)cc2Cl)o1`, the survival is inactive: 56%.

Take `Cc1ccc(N2C(=O)C(CC(=O)Nc3ccccc3)N(CCC3=CCCCC3)C2=O)cc1` (stereo not given): the survival was inactive: 67%.

Take `Cc1ccc2nc(NC(=O)CSc3ncc(C(=O)Nc4ccccc4)c(=O)n3C)sc2c1`: the survival was inactive: 93%.

`CCc1ccc(S(=O)(=O)c2cnc(SCC(=O)Nc3ccc(OC)cc3OC)[nH]c2=O)cc1`: the survival was inactive: 65%.

Take `Cn1c2ccc(F)cc2c2nnc(SCCN3CCCCC3)nc21`: the survival was inactive: 174%.

`CCCc1cc(=O)oc2cc(C)c3c(-c4ccccc4)c(C)oc3c12`: the survival is active: -10%.

Consider `CC(C)NC(=O)c1sc2ncccc2c1-n1cccc1`, for which the survival was inactive: 99%.

Regarding `CCOc1ccccc1NC(=O)CN1C(=O)C(=O)c2ccccc21`, the survival was inactive: 94%.

Take `COc1ccccc1CNC(=O)c1cc(-c2ccccc2)n[nH]1`: the survival was inactive: 80%.

Turning to `O=C(CCS(=O)(=O)c1nc(-c2cccs2)cc(C(F)(F)F)n1)Nc1cccc(O)c1`, the survival was inactive: 66%.

With `CCOC(=O)Cn1cnc2c(cnn2-c2ccc(C)c(C)c2)c1=O`, the survival is inactive: 100%.

`CC1CCC(NC(=O)CCc2cn(Cc3ccc(F)cc3)c3ccccc23)CC1` (stereo not given): the survival was inactive: 60%.

For `COc1ccc(NC(=O)c2nc(S(=O)(=O)Cc3ccc(C)cc3)ncc2Cl)cc1`, the survival was active: 32%.

Consider `Cc1ccccc1C(=O)NCc1ccc2c(c1)CCN2C(=O)c1ccc(F)cc1`, for which the survival was inactive: 88%.

With `O=C(O)C1=CC(c2ccc(Br)cc2)n2ncnc2N1` (stereo not given), the survival was inactive: 103%.

Take `CCOc1ccc(CCNC(=O)c2sc3nc4n(c(=O)c3c2C)CCCC4)cc1`: the survival was inactive: 75%.

As to `Cc1sc2c(c1C)c(=O)n(Cc1ccccc1)c(=O)n2CC(=O)Nc1cccc(Cl)c1`, the survival was inactive: 71%.

With `O=C(COc1ccccc1)Nc1ccccc1N1CCN(c2ccccc2)CC1`, the survival is inactive: 95%.

For the molecule `CCc1ccc(N=C2NC(=O)CS2)cc1`, the survival is inactive: 64%.

For `O=C(O)Cn1nc(N2CCN(c3ccccc3)CC2)ccc1=O`, the survival is inactive: 93%.

Take `O=C(/C=C/c1ccco1)Nc1ccc(-c2cc3ccccc3oc2=O)cc1`: the survival is inactive: 50%.

Take `COc1ccc(OCC(=O)N2CCN(C(=O)c3ccc(OC)cc3)CC2)cc1`: the survival is inactive: 69%.

Regarding `CCOc1ccc(Nc2nc(Nc3ccc(OCC)cc3)nc(N3CCOCC3)n2)cc1`, the survival was active: 44%.

With `COc1ccc(CCNC(=O)CCCn2c(=O)c3cccn3c3ccc(F)cc32)cc1OC`, the survival was active: 43%.

As to `COc1ccc(NC(=O)CC2C(=O)N(c3ccc(C)cc3)C(=O)N2C2CCCC2)cc1` (stereo not given), the survival was inactive: 128%.

As for `CCOc1ccc(C(=O)c2cn(CC(=O)Nc3ccc(C)c(C)c3)c3ccc(OCC)cc3c2=O)cc1`, the survival is inactive: 77%.

For the molecule `COc1ccc(N2CC(NC(=O)c3ccc(S(=O)(=O)N4CCOCC4)cc3)CC2=O)cc1` (stereo not given), the survival is inactive: 70%.

Take `CCOC(=O)CSc1ncnc2c1c(-c1ccccc1)cn2-c1ccc(OC)cc1`: the survival was inactive: 60%.

On to `CCS(=O)(=O)c1nc(S(=O)(=O)c2ccc(C)cc2)c(NCc2ccccc2Cl)s1`, for which the survival is inactive: 81%.

For the molecule `O=C(NCc1ccc(Cl)cc1)c1cc(-c2ccc(F)cc2)on1`, the survival is inactive: 79%.

Regarding `Cc1ccccc1OCC(=O)N(Cc1ccc(C(C)C)cc1)C1CCS(=O)(=O)C1` (stereo not given), the survival was active: 31%.

In the case of `Cc1ccc(C)c(CN2C(=O)C(O)(c3c[nH]c4ccccc34)c3ccccc32)c1` (stereo not given), the survival is inactive: 142%.

Turning to `COC(=O)CN1C(=O)C(C)(C)c2cc(S(=O)(=O)Nc3ccc(C(C)C)cc3)ccc21`, the survival was inactive: 79%.

As to `Cc1cc(C)nc(/N=C(/N)N2CCCCC2)n1`, the survival is inactive: 105%.

`COc1cccc(NC(=O)c2oc3ccccc3c2NC(=O)Cc2cccc(C)c2)c1`: the survival was inactive: 58%.

Consider `COC(=O)c1ccc(Cl)cc1NC(=O)N1CCC(CN2CCC(C)CC2)CC1`, for which the survival was inactive: 75%.

On to `CCc1cccc(NC(=O)c2coc(=O)c3ccccc23)c1`, for which the survival is inactive: 54%.

On to `Cc1cn2c(=O)cc(COC(=O)C(C)Oc3ccccc3)nc2s1` (stereo not given), for which the survival is inactive: 81%.

Take `CCOc1ccc(-c2nonc2NC(=O)c2oc3cc(Br)ccc3c2C)cc1`: the survival is inactive: 88%.

Take `O=C(Cn1c(C(=O)N2CCN(C3CCCCC3)CC2)cc2sccc21)c1ccccc1`: the survival was inactive: 100%.

In the case of `CC(NC(=O)c1cc2sccc2n1Cc1ccc(F)cc1)c1ccccc1` (stereo not given), the survival was inactive: 89%.

`CCc1cccc(C)c1NS(=O)(=O)c1ccc(-n2cccn2)cc1`: the survival is inactive: 117%.

Consider `Cn1c(=O)oc2cc(S(=O)(=O)Nc3ccccc3)ccc21`, for which the survival is inactive: 103%.

Consider `CC(=O)N1CCCc2cc(S(=O)(=O)NCc3ccc(OC(C)C)cc3)ccc21`, for which the survival was inactive: 80%.

Consider `CCOC(=O)c1c(C)oc2nc(C)nc(NCCc3ccc(S(N)(=O)=O)cc3)c12`, for which the survival was inactive: 77%.

Regarding `CCOC(=O)c1[nH]cnc1C(=O)N1CCOCC1`, the survival is inactive: 63%.

With `COc1cc(SC)ccc1C(=O)NCC#N`, the survival is inactive: 105%.

Turning to `CCOc1ccccc1Nc1ccc2cc(S(=O)(=O)N3CCCCC3)ccc2n1`, the survival was inactive: 74%.

On to `CCCSCCCNC(=O)CN1C(=O)COc2ccc(S(=O)(=O)N3CCCCCC3)cc21`, for which the survival is active: 62%.

Turning to `O=C(Nc1ccc(F)cc1F)C1CCCN1S(=O)(=O)c1cccc2nsnc12` (stereo not given), the survival was inactive: 94%.

In the case of `Cc1cc(NC(=O)CN(c2cccc(C)c2C)S(=O)(=O)c2ccccc2)ccc1Br`, the survival is inactive: 72%.

Take `CCCOc1ccc(CNC(=O)C2CCN(c3nn4c(=O)cc(C)nc4s3)CC2)cc1`: the survival was inactive: 110%.

For the molecule `N#Cc1ccccc1NC(=O)C(=O)NCC(c1cccnc1)N1CCN(c2ccccc2)CC1` (stereo not given), the survival was inactive: 96%.

As for `Cc1cccc(C(=O)Nc2cccc(C(=O)OCc3cc(=O)n4nc(C5CC5)sc4n3)c2)c1`, the survival is inactive: 83%.

On to `CCOc1ccc(C(=O)Nc2ccc3nc(SCC(=O)N4CCOCC4)sc3c2)cc1`, for which the survival is inactive: 80%.

In the case of `CCN1CCN(C(=O)c2ccc3c(c2)N(Cc2cc(C)ccc2C)C(=O)c2ccccc2S3(=O)=O)CC1`, the survival is inactive: 68%.

For `Cc1cccc(NC(=O)CN2C(=O)CCc3ccccc32)c1C`, the survival is inactive: 103%.
